From PubChem BioAssay AID504832 (National Center for Advancing Translational Sciences (NCATS), 2011)
Out of some 310,000 compounds screened, about 18,000 (5.8%) were called active. This list was built around the results that the source calls inconclusive (neither active nor inactive); the mix of calls is not that of the screen. The call rests on the fitted dose curve; in most records, active means well fitted inhibition curve with a large enough effect; inconclusive means small, poorly fitted or top-dose-only effect, or another doubt; inactive means no such curve, though single readings can be large or run the other way. Potencies of inconclusive entries are left out as doubtful fits.

Assay: Primary qHTS for delayed death inhibitors of the malarial parasite plastid, 48 hour incubation
Conditions: P. falciparum luciferase growth in erythrocytes; series mostly up to 28.7 µM; activity change, negative = inhibition: at the top concentration
Summary of the method: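 Compounds are pin-transferred into medium, infected erythrocytes (2% hematocrit, 0.1% parasitemia final) are added, and plates sit one parasite generation at 37 C in 5% CO2. Detection reagent is then added and luminescence measured.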
On the % scale 0 is the no-effect control and ±100 the full control effect; potency means the concentration at half of the fitted maximal effect; tags describe the fitted curve by direction and shape.

| SMILES | activity change, negative = inhibition | Potency |
| --- | --- | --- |
| COCCn1nnnc1C(c1ccc(OC)cc1OC)N1CCN(c2ccccc2)CC1 (centres undefined) | inactive: 0% | – |
| CCc1cc2c(=O)[nH]c(-c3ccccn3)nc2s1 | – | inconclusive [inhibitor, full curve, poor fit] |
| O=C(CCS(=O)(=O)c1ccc(F)cc1)Nc1nc(-c2ccncc2)cs1 | – | inconclusive [inhibitor, single point] |
| O=c1c2c([nH]c3ccc(Br)cc13)CCCC2 | – | active: 0.329 µM |
| COc1ccc2[nH]c(C)c(CCN(Cc3cccs3)C(=S)Nc3ccc(F)cc3)c2c1 | – | active: 1.65 µM |
| CC1=NN(c2ccccc2)C(=O)/C1=C\c1cn(C)c2ccccc12 | – | inconclusive [inhibitor, partial curve, poor fit] |
| COC(=O)[C@@H](NCc1cccc(CN[C@H](C(=O)OC)c2ccccc2)c1)c1ccccc1 | – | inconclusive [inhibitor, partial curve, poor fit] |
| CCCCCCOC1(c2ccccc2)OC(=O)c2ccccc21 (centres undefined) | – | active: 10.4 µM |
| COc1ccccc1NC(=O)CCCC(=O)OCC(=O)c1ccc(F)cc1 | inactive: -9.78% | – |
| CCN(CC)S(=O)(=O)c1cccc(NC(=O)c2ccc(Br)cc2)c1 | – | inconclusive [inhibitor, single point] |
| O=C(N/N=C/c1ccc2c(c1)OCO2)c1cc(-c2ccco2)nc2ccccc12 | inactive: -23.4% | – |
| O=C(O)c1ccccc1NS(=O)(=O)c1ccc2c3c(cccc13)C(=O)N2 | inactive: 13% | – |
| Cn1c(N)c(C(=O)CCl)c(=O)n(Cc2ccccc2)c1=O | – | inconclusive [inhibitor, partial curve, poor fit] |
| COc1ccc(NC(=O)C23CC4CC(C2)CC(n2cnc(Br)n2)(C4)C3)cc1OC | – | inconclusive [inhibitor, partial curve, poor fit] |
| C=CCNC(=O)CSc1nnc(-c2ccccc2Br)n1-c1cccc(C(F)(F)F)c1 | – | inconclusive [inhibitor, partial curve, poor fit] |
| CCOc1ccc(NC(=S)NC(C)CCc2ccccc2)cc1 (centres undefined) | – | inconclusive [inhibitor, partial curve, poor fit] |
| CCN(CC)C(=O)Cn1cc(/C=C(\C#N)C(=O)NC2CC2)c2ccccc21 | inactive: 14.7% | – |
| CCCCn1c(N)c(N2CCOCC2)c(=O)n(CC(=O)NCCc2ccccc2)c1=O | – | inconclusive [inhibitor, partial curve, poor fit] |
| Cc1ccc(C(=O)OCC(=O)Nc2cc(C(C)(C)C)no2)c(C)c1 | inactive: -25.2% | – |
| CC(=O)NCC(=O)N1CCCC(C(=O)c2ccc(Oc3ccccc3)cc2)C1 (centres undefined) | inactive: 2.88% | – |
| CCN(C(=O)C(C)OC(=O)CCCNC(=O)c1ccc(Cl)cc1)c1ccccc1 (centres undefined) | – | inconclusive [inhibitor, single point] |
| CCCCC1(CC(=O)OCC)C(=O)N(c2ccccc2)N(c2ccccc2)C1=O | – | inconclusive [inhibitor, single point] |

| SMILES | activity change, negative = inhibition | Potency |
| --- | --- | --- |
| Cc1ccc(NC(=O)c2cc(NC(=O)c3ccco3)ccc2N2CCCCC2)cc1 | – | active: 6.57 µM |
| COc1ccc(CN(C(=O)c2snc(C(N)=O)c2N)C(C(=O)NC2CCCC2)c2ccc(OC)cc2)cc1 (centres undefined) | – | inconclusive [inhibitor, single point] |
| O=C(NCCCN1CCOCC1)c1ccc(Cl)cc1Cl | – | inconclusive [inhibitor, single point] |
| O=C(c1ccc(Cn2c(=O)[nH]c3ccccc3c2=O)cc1)N1CCN(c2ccc(F)cc2)CC1 | – | inconclusive [inhibitor, partial curve] |
| CCCCN(C)S(=O)(=O)c1cc(Br)cc2c1N(C(=O)C1CC1)CC2 | – | active: 4.65 µM |
| Cn1c(-c2ccc(Cl)cc2)cnc1NCc1cc2c(cc1[N+](=O)[O-])OCO2 | – | inconclusive [inhibitor, single point] |
| CCCCn1c(N)c(N(CCOC)C(=O)CN2C(=O)C3CCCCC3C2=O)c(=O)[nH]c1=O (centres undefined) | – | inconclusive [inhibitor, partial curve, poor fit] |
| O=C(Nc1ccccc1)c1cc(-n2cnnc2)ccc1Cl | inactive: -10.6% | – |
| Cc1cc(C)cc(NC(=O)CCCCCN2C(=O)[C@@H]3Cc4ccccc4CN3C2=O)c1 | inactive: 1.32% | – |
| COc1ccc(CNC(=O)c2cnn3c(C(F)F)cc(C)nc23)cc1OC | inactive: -8.7% | – |
| CC[C@]12C=CCN3CCC4(c5cc(Br)c(OC)cc5N(C)C4[C@@](O)(C(=O)OC)[C@@H]1OC(C)=O)C32 (some centres undefined) | – | inconclusive [inhibitor, partial curve, poor fit] |
| Cc1ccc2c(c1)C1C3CCC(C3)C1S(=O)N2 (centres undefined) | inactive: 11.5% | – |
| OCC#CCSc1nnc(-c2cccc3ccccc23)o1 | inactive: 11.3% | – |
| CCOC(=O)c1ccc(NC(=O)c2nc[nH]c2C(=O)NCCCCCNC(=O)OC(C)(C)C)cc1 | – | inconclusive [inhibitor, partial curve] |
| Cc1ccc2c(CN3CCOCC3)cc(=O)oc2c1 | inactive: 32.6% | – |
| Cc1cc2c(=O)n(Cc3ccco3)c(SCC(=O)N3CCCc4ccccc43)nc2s1 | – | inconclusive [inhibitor, single point] |
| O=[N+]([O-])c1cccc(S(=O)(=O)NC2CC3CCC2C3)c1 (centres undefined) | inactive: 9.64% | – |
| CCOC(=O)c1ccc(NC(=O)c2cn(CCC#N)nc2-c2ccc3c(c2)OCCO3)cc1 | – | inconclusive [inhibitor, partial curve] |
| CC1Cc2ccccc2N1S(=O)(=O)c1cccc(C(=O)NCc2ccccn2)c1 (centres undefined) | – | inconclusive [inhibitor, single point] |
| CCC1=C(OC(=O)N(CC)CC)N2C(=O)OC(=NCc3ccccc3)[C@]2(C)[C@H]2C1=CC[C@H]1C(=O)N(c3ccccc3)C(=O)[C@H]12 | – | active: 7.38 µM |
| COc1ccc(CCN(C)C/C=C/c2ccccc2[N+](=O)[O-])cc1OC | inactive: -26.1% | – |
| O=[N+]([O-])c1cc(C(F)(F)F)cc([N+](=O)[O-])c1NCCN1CCNCC1 | – | inconclusive [inhibitor, single point] |
